The GPR68 mutational scans of Howard et al. (2025)
Scores with a large standard error are left out. Not listed are two conditions whose scores span a narrow range. Names with del lack the residues named; names with ins carry added residues between the positions named. For some assays here: How much ogerin was present is not stated here.

B1: GPR68, Q15743 (parent)
chain: MGNITADNSSMSCTIDHTIHQTLAPVVYVTVLVVGFPANCLSLYFGYLQIKARNELGVYLCNLTVADLFYICSLPFWLQYVLQHDNWSHGDLSCQVCGILLYENIYISVGFLCCISVDRYLAVAHPFRFHQFRTLKAAVGVSVVIWAKELLTSIYFLMHEEVIEDENQHRVCFEHYPIQAWQRAINYYRFLVGFLFPICLLLASYQGILRAVRRSHGTQKSRKDQIQRLVLSTVVIFLACFLPYHVLLLVRSVWEASCDFAKGVFNAYHFSLLLTSFNCVADPVLYCFVSETTHRDLARLRGACLAFLTCSRTGRAREAYPLGAPEASGKSGAQGEEPELLTKLHPAFQTPNSPGSGGFPTGRLA

Assays:
[1] = variants of: B1; assay: cAMP reporter score (Enrich2 score, wild type = 0); higher = more signal; HEK293T, FACS bins
[2] = variants of: B1; assay: surface expression score (Enrich2 score, wild type = 0); higher = more signal; HEK293T, FACS bins

Variant	cAMP reporter score ([1]; pH 5.5)	cAMP reporter score ([1]; pH 6)	cAMP reporter score ([1]; pH 6, modulator: ogerin)	cAMP reporter score ([1]; pH 6.5, modulator: ogerin)	surface expression score [2]
L195G	0.305	0.008	1.28	0.014	-0.452
L195M	1.61	0.534	1.56	0.793	-0.101
L195R	-0.851	–	-2.36	-2.56	-2.48
L195E	-1.38	–	–	-0.664	-3.48
L195Y	-1.66	-1.03	-1.98	-1.44	-2.5
L200D	-0.422	-0.235	–	-1.87	-1.05
L200E	-0.628	–	–	-1.66	–
L200G	0.024	-1.07	-0.888	-1.01	-1.66
L200P	-0.482	-0.056	-0.646	-0.392	-0.482
L200K	-1.66	-1.1	-3.21	-0.632	-1.71
L200T	-0.571	–	-0.056	-0.203	-1.03
L200M	-0.039	-0.106	0.045	-0.347	-0.748
L200I	0.63	2.64	0.441	2.19	–
L200F	0.799	–	0.031	-0.223	-0.009
L200H	-2.2	-1.69	–	–	-1.64
L200S	-1.78	–	-1.37	-1.66	–
L200Y	-0.207	-0.942	-2.03	-0.682	-1.81

Variant	cAMP reporter score ([1]; pH 5.5)	cAMP reporter score ([1]; pH 6)	cAMP reporter score ([1]; pH 6, modulator: ogerin)	cAMP reporter score ([1]; pH 6.5, modulator: ogerin)	surface expression score [2]
L200V	-0.736	0.111	-0.456	-0.623	-0.696
L200Q	-1.11	-0.856	-1.26	-0.593	-1.15
L200A	0.012	–	0.214	-2.21	-0.371
Q206_G207del	-0.949	-1.09	-0.583	-0.192	-2.22
F194_L195insGSG	-0.668	-0.79	-1.32	-0.923	-2.18
P197F	-1.87	–	-0.63	-2.85	-2.35
P197C	-1.61	-1.07	-0.783	-1.06	-1.84
P197K	-1.45	-1.26	-1.82	-0.691	-2.24
P197Y	-0.426	-0.532	–	-0.604	–
P197Q	-1.16	–	-1.8	-0.446	-2.52
P197V	-1.56	-1.72	-1.73	-0.702	-2.39
P197A	-0.812	-0.615	-1.23	-1.24	-2.32
P197E	-0.403	–	-0.677	–	–
P197M	-1.19	-1.53	-1.9	-2.19	-1.74
P197H	-1.06	-0.187	-1.46	-0.954	-1.77
P197I	-2.23	-1.98	–	-0.793	–
P197R	-1.25	-0.804	-1.37	-1.43	-1.71
